Four molecules from patent US20250197483A1 can be followed below.

In assay [1] the target is HIV-1 Env of the 208-virus panel (Env-pseudoviruses). Put plainly: cell-based or functional assay.
The target is the same in assay [2]. Put plainly: cell-based or functional assay. This is another data set of the same source.

B1: N6LS.C15 (antibody)
heavy: RAHLVQSGTAMKKPGASVRVSCQTSGYTFTAHILFWFRQAPGRGLEWVGWIKPQYGAVNFGGGFRDRVTLTRQLSQDPDDPDWGIAYMDIRGLKPDDTAVYYCARDRSYGDSSWALDAWGQGTTVVVSA[human IgG1 constant region with changes cut from this listing]
light: YIHVTQSPSSLSVSIGDEVTINCQTSQGVGSDLHWYQHKPGEAPELLIHHTSSVEDGVPSRFSGSGFHTSFNLTISDLQADDIATYYCQVLQFFGRGSRLHIKRTVAAPSVFIFPPSDEQLKSGTASVVCLLNNFYPREAKVQWKVDNALQSGNSQESVTEQDSKDSTYSLSSTLTLSKADYEKHKVYACEVTHQGLSSPVTKSFNRGEC
B1: the neutralization of Env-pseudoviruses on TZM-bl cells, share of the panel at IC80<1 µg/ml (% of viruses (208-virus panel)) in assay [1] stood at 78.

B2: N6LS.C35 (antibody)
heavy: RAHLVQSGTAMKEPGASVRVSCQTSGYTFTAHILFWFRQAPGRGLEWVGWIKPQYGAVNFGGGFRDRVTLTRQLSQDPDDPDWGIAYMDIRGLKPDDTAVYYCARDRSYGDSSWALDAWGQGTTVVVSA[human IgG1 constant region with changes cut from this listing]
light: YIHVTQSPSSLSVSIGDEVTINCQTSQGVGSDLHWYQHKPGEAPELLIHHTSSVEDGVPSRFSGSGFHTSFNLTISDLQADDIATYYCQVLQFFGRGSRLHIKRTVAAPSVFIFPPSDEQLKSGTASVVCLLNNFYPREAKVQWKVDNALQSGNSQESVTEQDSKDSTYSLSSTLTLSKADYEKHKVYACEVTHQGLSSPVTKSFNRGEC
Turning to B2, the neutralization of Env-pseudoviruses on TZM-bl cells, share of the panel at IC80<1 µg/ml (% of viruses (208-virus panel)) in assay [1] is 73.

B3: VRC07-523LS.v34 (antibody, human IgG1, kappa)
heavy: QVRLSQSGGQMKKPGDSMRISCSASGYEFINCPINWIRLAPGKRPEWMGWMKPRFGAVSYARQLQGRVTMTRQLSQDPDDPDWGTAFLELRSLTSDDTAVYFCTRGSYCTARDYYNWDFEHWGQGTPVTVSS[human IgG1 constant region with changes cut from this listing]
light: LTQSPGTLSLSPGETAIISCETSQYGSLAWYQQRPGQAPRLVIYSGSTRAAGIPDRFSGSRWGPDYNLTISNLESGDFGVYYCQQYEFFGQGTKVQVDIKRTVAAPSVFIFPPSDEQLKSGTASVVCLLNNFYPREAKVQWKVDNALQSGNSQESVTEQDSKDSTYSLSSTLTLSKADYEKHKVYACEVTHQGLSSPVTKSFNRGEC
For B3, the neutralization of Env-pseudoviruses on TZM-bl cells, share of the panel at IC80 less than 1 µg/ml (% of the 208-virus panel) in assay [2] is 92.

B4: VRC07-523LS.v11 (antibody, human IgG1, kappa)
heavy: QVRLSQSGGQMKKPGDSMRISCRASGYEFINCPINWIRLAPGKRPEWMGWMKPRFGAVSYARQLQGRVTMTRQLSQDPDDPDWGTAFLELRSLTSDDTAVYFCTRGKYCTARDYYNWDFEHWGQGTPVTVSS[human IgG1 constant region with changes cut from this listing]
light: LTQSPGTLSLSPGETAIISCDTSQYGSLAWYQQRPGQAPRLVIYSGSTRAAGIPDRFSGSRWGPDYNLTISNLESGDFGVYYCQQYEFFGQGTKVQVDIKRTVAAPSVFIFPPSDEQLKSGTASVVCLLNNFYPREAKVQWKVDNALQSGNSQESVTEQDSKDSTYSLSSTLTLSKADYEKHKVYACEVTHQGLSSPVTKSFNRGEC
In turn, B4 registered a neutralization of Env-pseudoviruses on TZM-bl cells, share of the panel at IC80 less than 1 µg/ml (% of the 208-virus panel) in assay [2] of 92.
